Here are results for 59 molecules from PubChem BioAssay AID1956 (SRMLSC, 2009).

Molecules are shown by their SMILES. The list shows a part of the results. Further columns of the screen follow, without active or inactive calls.

A short description of this experiment: compounds boosting herpes simplex virus growth – fold increase, host cell viability (AID 1956). Note: tested in PC3 cells. The note with it: HSV replication augmentation in cells; fold increase: measured here: primary screen fold increase 10 uM, at 10 µM, stronger effect = higher value; viability: measured here: host cell viability series, at 25 µM, stronger effect = lower value.
For `Cn1cc(/C=C2\SC(=S)N(NC(=O)c3ccccc3)C2=O)c2ccccc21`, the fold increase was 1.43 and the viability was 92.1%.
On the same counts, the results for `CC(C)Oc1ccc(N2CC(C(=O)Nc3ccc4c(c3)OCO4)CC2=O)cc1` (stereo not given) are 1.42 and 99.7%.
Turning to `CCN(Cc1ccccc1)c1ccc(/C=C(\C#N)c2ccccn2)cc1`, the fold increase worked out at 2.13 and the viability came to 83.7%.
Consider `CCN(CC)S(=O)(=O)c1ccc(C(=O)OCCN2C(=O)c3cccc4c(N5CCOCC5)ccc(c34)C2=O)cc1`, for which the fold increase worked out at 1.64 and the viability was 89.7%.
The matching figures for `COc1ccc(C(=O)OC(C)C(=O)Nc2cc(C(F)(F)F)ccc2Cl)c(OC)c1OC` (stereo not given): 1.34 and 83.7%.
The matching figures for `CC(C)OC(=O)CN1C(=O)S/C(=C/c2ccc(N3CCCCC3)o2)C1=O`: 1.34 and 90.5%.
On the same counts, the results for `CN(C)c1ccc(/C=C(\C#N)c2ccccn2)cc1` are 1.41 and 62.5%.
For the molecule `Cc1cc(-c2nnc(CCC(=O)N3CCN(Cc4cccnc4)CC3)o2)c(C)o1`, the fold increase amounted to 1.62 and the viability was 96.4%.
The matching figures for `CCCCN1C(=O)C2Cc3c([nH]c4ccccc34)CN2C1=S` (stereo not given): 1.66 and 94.7%.
On the same counts, the results for `O=c1[nH]c2ccccc2nc1/C=C(\O)C(F)F` are 1.63 and 99.8%.
As to `COc1ccc(C2C3=C(CC(C)(C)CC3=O)Nc3cc4c(cc32)OCO4)cc1` (stereo not given), the fold increase is 1.28.
Consider `CN(C)CCCn1c(N)c(C#N)c2nc3ccccc3nc21`, for which the fold increase worked out at 1.37 and the viability amounted to 94.7%.
The molecule `COc1ccc(-n2nnnc2SCC(=O)Nc2nnc(C)s2)cc1` showed a fold increase of 1.13.
On to `Cc1cc(/C=C(/C#N)c2nc3ccccc3[nH]2)c(C)n1-c1cc(C(=O)O)cc(C(=O)O)c1`, for which the fold increase was determined as 1.55 and the viability amounted to 99.9%.
The matching figures for `COc1cc2c3nnc(-c4ccc(F)cc4)c-3cn(Cc3ccc(C)cc3)c2cc1OC`: 3.21 and 97.4%.
Take `N#Cc1cn(-c2ccccc2)nc1-c1ccccc1`: the fold increase came to 1.39 and the viability was determined as 90.8%.
`CC(C)C(C(=O)O)N1C(=O)/C(=C/C=C/c2ccco2)SC1=S` (stereo not given) came in with a fold increase of 1.34.
As to `COCCN1C(=O)/C(=C/c2ccc(N3CCCC3)cc2C)SC1=S`, the fold increase worked out at 4.94 and the viability worked out at 84.4%.
For `O=C(c1cn(-c2ccccc2)nc1-c1ccccc1)n1nnc2ccccc21`, the fold increase was 1.16.
On the same count and under the same terms, next, `O=C(NNC1=Nc2cccc3cccc1c23)c1ccc(Br)cc1`: 1.56; `O=C(Nc1ccc(Cl)cc1)N1CCCC(Cn2cccc2)C1` (stereo not given): 1.32.
In the case of `CCOc1ccc2oc(-c3ccccc3)c(C(=O)N(C)C)c2c1`, the fold increase amounted to 1.32 and the viability stood at 90.3%.
With `CCc1sc(/C=C(/C#N)C(N)=S)cc1[N+](=O)[O-]`, the fold increase stood at 1.54 and the viability was determined as 99%.
As to `CC(=O)Nc1ccc2cc3ccc(NC(C)=O)cc3nc2c1`, the fold increase worked out at 9.14.
Same read-out and setting: next, `Cc1cc(C(=O)CN2C(=O)NC3(CCCc4ccccc43)C2=O)c(C)n1Cc1ccccc1` (stereo not given): 1.18.
`CC(=O)Nc1cccc(C(=O)/C=C/c2ccc(N(C)C)cc2)c1`: the fold increase stood at 1.37 and the viability is 89.2%.
`CCOC(=O)/C(C#N)=C/c1ccc(OCC(=O)Nc2ccccc2)c(OC)c1` came in with a fold increase of 1.14.
With `CCN(CC)Cc1ccc(OC)c(Cl)c1`, the fold increase was 1.33 and the viability came out at 92.3%.
On the same counts, the results for `O=C(CCN1C(=O)c2ccccc2C1=O)Nc1ccccn1` are 1.33 and 101%.
On to `Nc1nccnc1C(=O)OCC(=O)Nc1cccc(S(=O)(=O)N2CCCCC2)c1`, for which the fold increase stood at 1.43 and the viability is 96.9%.
Molecule `N#C/C(=C\c1ccc([N+](=O)[O-])o1)C(=O)Nc1ccc(F)cc1` had a fold increase of 1.56.
On to `Cc1ccc(N2C(=O)[C@@H]3C(C(=O)CCN4C(=O)c5ccccc5C4=O)=NN[C@@H]3C2=O)cc1`, for which the fold increase is 1.33 and the viability was 95.4%.
The matching figures for `CC(=O)c1sc2nc(-c3cccs3)cc(C(F)(F)F)c2c1N`: 1.24 and 94.3%.
In the case of `CCOC(=O)N1CCN(C(=O)c2cc3c(=O)n(C)c4ccccc4c3n2C)CC1`, the fold increase was found to be 1.4 and the viability was 96.8%.
On the same counts, the results for `O=C(CSc1nnc(-c2ccccc2)c(-c2ccccc2)n1)Nc1ncc(Cl)cc1Cl` are 1.42 and 86.6%.
On the same counts, the results for `CCCN1C(=O)/C(=C/c2c(N3CCNC(=O)C3CC(=O)OCC)nc3c(C)cccn3c2=O)SC1=S` (stereo not given) are 8.77 and 69.8%.
As for `CC(C)(C)CC(C)(C)NC(=S)Nc1ccc2nc(-c3ccccn3)c(-c3ccccn3)nc2c1`, the fold increase turned out to be 1.34 and the viability was determined as 72.1%.
The matching figures for `COc1cc(-c2cc(=O)c3ccccc3o2)ccc1O`: 1.34 and 83.6%.
On the same counts, the results for `CCOc1cc(/C=C/c2cc(C(F)(F)F)[nH]c(=O)n2)ccc1O` are 1.56 and 83.2%.
For `CC(C)N1CC=C2C(C#N)=C(N)C(C#N)(C#N)C(c3ccccc3)C2C1` (stereo not given), the fold increase was 1.41.
As to `COC(=O)c1c(C)[nH]c(O)c1C=Nc1ccc(C(C)C)cc1`, the fold increase amounted to 1.38 and the viability came to 93.8%.
As to `Cc1cc(O)cc(O)c1C=NCc1ccco1`, the fold increase stood at 2.37 and the viability is 99.9%.
On the same counts, the results for `CC1=C(C#N)c2nc(N)c(C#N)c(C)c2/C1=C\c1ccc(OCC(=O)O)c(Cl)c1` are 1.34 and 95.4%.
On the same counts, the results for `COc1ccccc1N1C(=O)C2C(C(=O)c3ccccc3)=NN(c3ccc(C)cc3)C2C1=O` (stereo not given) are 1.93 and 103%.
On the same counts, the results for `Cn1c(=O)c(C(=O)CN2CCc3ccccc32)c(N)n(Cc2ccccc2)c1=O` are 2.2 and 99.9%.
`CCN(CC)C(=O)c1cc2c(=O)n3cccc(C)c3nc2n1C`: the fold increase was 1.35 and the viability was 92.6%.
On the same counts, the results for `O=[N+]([O-])c1ccc(-c2c[nH]c(=S)[nH]2)cc1` are 1.4 and 92.2%.
The matching figures for `COc1ccc(Cl)cc1-c1nc(SCC(=O)N(C)C)n[nH]1`: 1.33 and 102%.
On the same counts, the results for `Cc1ccc(-c2c(C(=O)Nc3ccccc3C)c(C)[nH]c(=S)c2C#N)o1` are 1.7 and 93%.
Take `C=CCN(C1CCCCC1)S(=O)(=O)c1ccc2c(c1)oc(=O)n2C`: the fold increase turned out to be 1.48 and the viability is 90.2%.
On the same counts, the results for `Cc1ccccc1CN1CCN(CC(=O)NCc2ccccc2)C1=O` are 1.44 and 99.4%.
On to `COc1ccc2c(n1)Sc1nc3ccccc3nc1N2`, for which the fold increase turned out to be 3.62 and the viability was 95.9%.
`CC(=O)N/N=C/c1cc(C(C)(C)C)cc(/C=N/NC(C)=O)c1O` returned a fold increase of 4.57.
As to `Cc1cccc(OCc2nnc(SCC(=O)Nc3ccc(C)c(C)c3)o2)c1`, the fold increase turned out to be 1.38 and the viability came to 97.8%.
On the same counts, the results for `O=C(O)c1cccc(-c2ccc(/C=N/Nc3ccc([N+](=O)[O-])cc3)o2)c1` are 1.92 and 105%.
As to `O=C(C(=O)N1CC=C(c2ccccc2)CC1)c1c[nH]c2ccccc12`, the fold increase came out at 2.25 and the viability was determined as 88.2%.
As to `CN1/C(=C\C(=S)NC(=O)c2ccc([N+](=O)[O-])cc2)C(C)(C)c2ccccc21`, the fold increase was found to be 1.72.
Consider `COc1ccc(/C=N/NC(=O)C(=O)N2CCN(c3ccccc3OC)CC2)cc1`, for which the fold increase turned out to be 1.42 and the viability amounted to 86.3%.
The matching figures for `CCN1C/C(=C/c2sccc2C)c2nc3ccccc3c(C(=O)O)c2C1`: 1.37 and 98.1%.
